Data from the supplement of paper PMC4604168 (melanoma cell lines).
The other results are listed elsewhere or left out. Single values are uncertain, as repeats are few or missing.

Assays:
Experiment in all cases: cell count relative to DMSO control; melanoma cells; higher = more viable cells
Conditions in all cases: library dose: standard library concentration; 72 h
[1] = tested on: G361
[2] = tested on: IPC-298
[3] = tested on: IST-MEL1
[4] = tested on: LB2518-MEL
[5] = tested on: LOXIMVI
[6] = tested on: MEL-HO
[7] = tested on: MZ2-MEL
[8] = tested on: MeWo
[9] = tested on: RPMI7951
[10] = tested on: RVH-421
[11] = tested on: SkMel28
[12] = tested on: SkMel2
[13] = tested on: SkMel30
[14] = tested on: SkMel5
[15] = tested on: UACC257
[16] = tested on: UACC62
[17] = tested on: WM115
[18] = tested on: WM1716
[19] = tested on: WM1745
[20] = tested on: WM3526
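Also: cells treated in 1,536-well plates, then fixed and DAPI-stained, with nuclei counted from automated high-throughput microscope images.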

SMILES | cell count [1] | cell count [2] | cell count [3] | cell count [4] | cell count [5] | cell count [6] | cell count [7] | cell count [8] | cell count [9] | cell count [10] | cell count [11] | cell count [12] | cell count [13] | cell count [14] | cell count [15] | cell count [16] | cell count [17] | cell count [18] | cell count [19] | cell count [20]
CN1CCN(c2ccc3nc(-c4c(N)c5c(F)cccc5[nH]c4=O)[nH]c3c2)CC1 [Dovitinib] + O=C(O)c1ccc(-c2c[nH]c3ncc(-c4ccccc4)cc23)cc1C1CCCC1 [GSK650394] (first compound 0.5 µM, partner dose 0.8 µM) | 33.9% | 59.7% | 48.4% | 43% | 70.8% | 58.6% | 43.5% | 31.2% | 61.5% | 90.6% | 52.4% | 44.2% | 71% | 45.3% | 65.9% | 65.5% | 32.6% | 65.1% | 41.3% | 79.3%
CNC(=O)c1cc(Oc2ccc(NC(=O)Nc3ccc(Cl)c(C(F)(F)F)c3)cc2)ccn1 [sorafenib] + O=C(O)c1ccc2c(c1)nc(Nc1cccc(Cl)c1)c1ccncc12 [CX4945] (first compound 2 µM, partner dose 2 µM) | 75% | 71.1% | 73.2% | 105% | 75.4% | 66% | 72.6% | 77.5% | 42% | 73.9% | 94.8% | 48.3% | 70.9% | 68.9% | 79.7% | 80.5% | 92.2% | 101% | 63.2% | 64.4%
C=CCNC1=C2C[C@@H](C)C[C@H](OC)[C@H](O)[C@@H](C)/C=C(\C)[C@H](OC(N)=O)[C@@H](OC)/C=C\C=C(/C)C(=O)NC(=CC1=O)C2=O [Tanespimycin] + O=C(O)c1ccc(-c2c[nH]c3ncc(-c4ccccc4)cc23)cc1C1CCCC1 [GSK650394] (first compound 0.01 µM, partner dose 0.8 µM) | 30.9% | 78.1% | 40.6% | 63.7% | 92.3% | 71.4% | 89.8% | 35.6% | 20.4% | 84.7% | 28.9% | 53.6% | 99.2% | 61.5% | 80.7% | 53.5% | 18.7% | 62.1% | 50% | 74%
CN1CCN(c2ccc3nc(-c4c(N)c5c(F)cccc5[nH]c4=O)[nH]c3c2)CC1 [Dovitinib] + C[C@@H]1CCN(C(=O)CC#N)C[C@@H]1N(C)c1ncnc2[nH]ccc12 [CP690550] (first compound 0.5 µM, partner dose 5 µM) | 43.5% | 69.3% | 59.8% | 48.5% | 71.2% | 72.7% | 48.2% | 47.2% | 65.5% | 87.4% | 52.2% | 50% | 79.3% | 61.2% | 74.3% | 78.3% | 60.2% | 71.5% | 31.8% | 73.4%
CNC(=O)c1cc(Oc2ccc(NC(=O)Nc3ccc(Cl)c(C(F)(F)F)c3)cc2)ccn1 [sorafenib] + Cc1ccc(NC(=O)c2cccc(N(C)C)c2)cc1NC(=O)c1ccc(O)cc1 [ZM336372] (first compound 2 µM, partner dose 10 µM) | 101% | 104% | 83.8% | 92.4% | 129% | 98.1% | 116% | 81.2% | 116% | 92.6% | 110% | 98.9% | 117% | 92.8% | 80.7% | 78.1% | 88.3% | 120% | 97.6% | 91.6%
CN1CCN(c2ccc3nc(-c4c(N)c5c(F)cccc5[nH]c4=O)[nH]c3c2)CC1 [Dovitinib] + C[C@]1(c2nc3c(C(N)=O)cccc3[nH]2)CCCN1 [Veliparib] (first compound 0.5 µM, partner dose 7 µM) | 40.3% | 67.7% | 75.6% | 64.8% | 113% | 83.1% | 51.2% | 36.2% | 61.1% | 105% | 50% | 68.2% | 58.3% | 57.6% | 72.4% | 61.2% | 61.9% | 64.3% | 54% | 71.1%
C=CCNC1=C2C[C@@H](C)C[C@H](OC)[C@H](O)[C@@H](C)/C=C(\C)[C@H](OC(N)=O)[C@@H](OC)/C=C\C=C(/C)C(=O)NC(=CC1=O)C2=O [Tanespimycin] + CN(C)S(=O)(=O)c1ccc2c(c1)/C(=C/c1cc3c([nH]1)CCCC3)C(=O)N2 [SU6656] (first compound 0.01 µM, partner dose 2 µM) | 42.2% | 67.4% | 40.6% | 56.8% | 108% | 63.3% | 111% | 53.5% | 21.8% | 80.7% | 49.9% | 72% | 69.1% | 56.4% | 82% | 49.4% | 25.5% | 49.8% | 51.2% | 71.5%
CN1CCN(c2ccc3nc(-c4c(N)c5c(F)cccc5[nH]c4=O)[nH]c3c2)CC1 [Dovitinib] + Cn1cncc1[C@@](N)(c1ccc(Cl)cc1)c1ccc2c(c1)c(-c1cccc(Cl)c1)cc(=O)n2C [tipifarnib] (first compound 0.5 µM, partner dose 0.05 µM) | 40.5% | 73.9% | 58.1% | 54% | 59.8% | 79.9% | 53.7% | 36.7% | 55.5% | 69.1% | 50.3% | 48.1% | 68.7% | 39.1% | 75% | 59.7% | 45.9% | 51.3% | 49.7% | 53.6%
CNC(=O)c1cc(Oc2ccc(NC(=O)Nc3ccc(Cl)c(C(F)(F)F)c3)cc2)ccn1 [sorafenib] + O=C(Nc1cccc(Cl)c1)Nc1ncc(CCNc2ncnc3ccsc23)s1 [SNS314] (first compound 2 µM, partner dose 0.004 µM) | 58.7% | 74.3% | 42.1% | 74.5% | 76.5% | 64.1% | 82.2% | 61.4% | 41.2% | 71.9% | 49.6% | 48% | 89% | 72.1% | 72.9% | 74.3% | 30.5% | 38.6% | 49.5% | 64.9%
C[C@@H](Oc1cc(-c2cnn(C3CCNCC3)c2)cnc1N)c1c(Cl)ccc(F)c1Cl [Crizotinib] + C=CCn1c(=O)c2cnc(Nc3ccc(N4CCN(C)CC4)cc3)nc2n1-c1cccc(C(C)(C)O)n1 [MK1775] (first compound 1 µM, partner dose 0.1 µM) | 79.5% | 101% | 78.3% | 69.7% | 109% | 95.4% | 99% | 47.9% | 82.5% | 56.6% | 51.2% | 74% | 67.8% | 54.3% | 84.1% | 70.9% | 39.1% | 67.7% | 40.5% | 81.1%
CN1CCN(c2ccc3nc(-c4c(N)c5c(F)cccc5[nH]c4=O)[nH]c3c2)CC1 [Dovitinib] + O=C(Nc1cccc(Cl)c1)Nc1ncc(CCNc2ncnc3ccsc23)s1 [SNS314] (first compound 0.5 µM, partner dose 0.004 µM) | 53.1% | 62.4% | 49.8% | 61.9% | 70.4% | 78.1% | 52% | 56.1% | 87.4% | 81.7% | 51% | 48.7% | 111% | 61.5% | 84.3% | 85.5% | 60.7% | 64.6% | 55.8% | 69.8%
CNC(=O)c1cc(Oc2ccc(NC(=O)Nc3ccc(Cl)c(C(F)(F)F)c3)cc2)ccn1 [sorafenib] + COc1cc(Nc2ncc(F)c(Nc3ccc4c(n3)NC(=O)C(C)(C)O4)n2)cc(OC)c1OC [Tamatinib] (first compound 2 µM, partner dose 2 µM) | 71.8% | 97.4% | 64.9% | 73.5% | 26.6% | 69.7% | 86.4% | 52.3% | 25.5% | 83.6% | 80.4% | 74.3% | 76.3% | 52.3% | 84% | 73.6% | 69.4% | 73.1% | 47.7% | 55.2%
C=CCNC1=C2C[C@@H](C)C[C@H](OC)[C@H](O)[C@@H](C)/C=C(\C)[C@H](OC(N)=O)[C@@H](OC)/C=C\C=C(/C)C(=O)NC(=CC1=O)C2=O [Tanespimycin] + C#Cc1cccc(Nc2ncnc3cc(OCCOC)c(OCCOC)cc23)c1 [erlotinib] (first compound 0.01 µM, partner dose 4 µM) | 44.7% | 45% | 74.1% | 30% | 120% | 68.2% | 57.4% | 49.4% | 14.5% | 61.1% | 26.3% | 67.1% | 76.7% | 49.7% | 89.8% | 30.4% | 28.7% | 84.5% | 37.5% | 71.8%
CNC(=O)c1cc(Oc2ccc(NC(=O)Nc3ccc(Cl)c(C(F)(F)F)c3)cc2)ccn1 [sorafenib] + C#Cc1cccc(Nc2ncnc3cc(OCCOC)c(OCCOC)cc23)c1 [erlotinib] (first compound 2 µM, partner dose 4 µM) | 64.9% | 66.6% | 98.7% | 89.5% | 88.2% | 87.3% | 81.3% | 57.5% | 61.1% | 68.1% | 49.7% | 68.5% | 67.7% | 56.5% | 83.5% | 58.8% | 62.7% | 98.5% | 78.1% | 57.8%
CS(=O)(=O)CCNCc1ccc(-c2ccc3ncnc(Nc4ccc(OCc5cccc(F)c5)c(Cl)c4)c3c2)o1 [lapatinib] + O=C(O)c1ccc(-c2c[nH]c3ncc(-c4ccccc4)cc23)cc1C1CCCC1 [GSK650394] (first compound 4 µM, partner dose 0.8 µM) | 45.1% | 69.5% | 69.8% | 123% | 91.7% | 72.5% | 86.4% | 59.3% | 28.1% | 91.7% | 65.3% | 79.9% | 91.3% | 49.6% | 66.6% | 62.2% | 102% | 71.5% | 101% | 60.3%
C[C@@H](Oc1cc(-c2cnn(C3CCNCC3)c2)cnc1N)c1c(Cl)ccc(F)c1Cl [Crizotinib] + C[C@@H]1CCN(C(=O)CC#N)C[C@@H]1N(C)c1ncnc2[nH]ccc12 [CP690550] (first compound 1 µM, partner dose 5 µM) | 107% | 128% | 99.3% | 81.5% | 84.3% | 102% | 119% | 85.6% | 96.4% | 97% | 103% | 105% | 109% | 69.5% | 84% | 83.9% | 97.5% | 80% | 98.7% | 87.9%
